Measured values from PubChem BioAssay AID1508623 (National Center for Advancing Translational Sciences (NCATS), 2021).
Screen size: about 48,000 compounds; about 450 (0.94%) were called active. The shares of active, inactive and inconclusive entries below differ from those in the screen. The call rests on the fitted dose curve; in most records, active means well fitted inhibition curve with a large enough effect; inconclusive means small, poorly fitted or top-dose-only effect; inactive means no such curve, though single readings can be large or run the other way. A potency beside an inconclusive call is a rough fit, not a confirmed value.

Assay: Primary qHTS for Identification of Small Molecule Inhibitors of Huntingtin Promoter Activity; further: nearly all actives have a fitted effect of over 50% in size
Details: HEK293 HTT promoter firefly luciferase reporter (activity 0% = vehicle and -100% = no light), 24 h; activity change, negative = inhibition: at 57.5 µM (top of the series)
Procedure, shortened: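 Firefly luciferase signal from promoter-reporter HEK293 cells was scaled between vehicle (0%) and zero RLU (-100%). Compounds were tested at final concentrations of up to 57.5 uM over 24 h at 37 degrees C. PTC124 at 50 uM final served as control inhibitor.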
Potency means the concentration at half of the fitted maximal effect; tags describe the fitted curve by direction and shape.

| SMILES | Potency | activity change, negative = inhibition |
| --- | --- | --- |
| COc1ccc(CCNC(=O)c2ccc3c(c2)CCN3S(=O)(=O)c2ccccc2)cc1 | inconclusive: 39.8 µM [inhibitor, single point] | – |
| CCOc1cc(C(c2c(C)[nH]n(-c3ccccc3)c2=O)c2c(C)[nH]n(-c3ccccc3)c2=O)ccc1O | inconclusive: 39.8 µM [inhibitor, single point] | – |
| Cc1[nH]c2ccc(C(=O)N3CCN(c4ccccc4F)CC3)cc2c1C | – | inactive: -3.34% |
| O=C(NCCc1ccc(F)cc1)C(=O)NCC(c1ccco1)S(=O)(=O)c1ccccc1 (stereo not drawn) | inconclusive: 17.8 µM [inhibitor, partial curve, poor fit] | – |
| COC(=O)c1cc(NS(=O)(=O)c2ccc3c(c2)OCCO3)ccc1Cl | inconclusive: 28.2 µM [inhibitor, single point] | – |
| COC(=O)C1=C(CS(=O)(=O)c2ccc(C)cc2C)NC(=O)NC1c1ccc(C)cc1 (stereo not drawn) | inconclusive: 28.2 µM [inhibitor, single point] | – |
| Cc1cc(C)c(S(=O)(=O)NCc2ccc3c(c2)CCN3C(=O)c2ccccc2)c(C)c1 | inconclusive: 22.4 µM [inhibitor, single point] | – |
| Cc1cccc(N2CCN(S(=O)(=O)c3cc(C(=O)Nc4ccc(Oc5ccccc5)cc4)ccc3F)CC2C)c1 (stereo not drawn) | active: 1 µM | – |
| COc1ccc(C(=O)NCCn2cc(SCC(=O)Nc3ccc4c(c3)OCCO4)c3ccccc32)cc1 | inconclusive: 25.1 µM [inhibitor, partial curve, poor fit] | – |
| NC(=O)n1c(O)c(C(=O)c2cccs2)c2cc(Cl)ccc21 | inconclusive: 31.6 µM [inhibitor, single point] | – |
| CCc1c(-c2ccccc2)nc2ccccc2c1C(=O)NC(C)c1ccccc1 (stereo not drawn) | inconclusive: 28.2 µM [inhibitor, single point] | – |
| CCOC(=O)C1CCCN(S(=O)(=O)c2cc(-c3onc(C)c3C)ccc2OC)C1 (stereo not drawn) | inconclusive: 39.8 µM [inhibitor, single point] | – |
| CCCN(c1ccccc1F)S(=O)(=O)c1ccc2c(c1)C(C)(C)C(=O)N2C | – | inconclusive: -30.2% [inhibitor] |
| CCOc1ccccc1NC(=O)Cn1nnc(C(=O)NCc2cccs2)c1N | inconclusive: 0.794 µM [inhibitor, full curve, poor fit] | – |
| Cc1ccccc1Nc1nn2c(=O)c3ccc(C(=O)NCC(C)c4ccccc4)cc3nc2s1 (stereo not drawn) | inconclusive: 35.5 µM [inhibitor, single point] | – |
| NC(=O)c1nc(Nc2ccccc2)sc1NC(=O)c1c(F)cccc1F | – | inactive: 13.8% |
| CCOC(=O)c1ccc(NC(=O)c2c(NCc3sccc3C)sc3c2CCC(C)C3)cc1 (stereo not drawn) | inconclusive: 35.5 µM [inhibitor, partial curve, poor fit] | – |
| CCOCCCNC(=O)c1c[nH]c2ccc(S(=O)(=O)N(C)c3ccc(Cl)cc3F)cc2c1=O | inconclusive: 14.1 µM [inhibitor, partial curve, poor fit] | – |
| CCOc1ccccc1NC(=O)Cn1c(=O)n(CC(=O)NCc2ccccc2Cl)c(=O)c2sccc21 | – | inactive: -10.2% |
| Cc1cc(N2CCOCC2)cc2[nH]c(-c3c(NC[C@@H](O)c4cccc(Cl)c4)cc[nH]c3=O)nc12 | inconclusive: 3.43 µM [inhibitor, full curve] | – |

| SMILES | Potency | activity change, negative = inhibition |
| --- | --- | --- |
| Fc1ccc(-c2noc3ncnc(NCCc4ccc(Cl)cc4)c23)cc1 | inconclusive: 20 µM [inhibitor, single point] | – |
| COc1ccc(Nc2cc(C)c3cc(NC(=O)c4ccccc4Cl)ccc3n2)cc1 | inconclusive: 35.5 µM [inhibitor, partial curve] | – |
| COc1cccc(CNC(=O)N2CCc3c(sc4c3CCCC4)C2c2ccc(F)cc2)c1 (stereo not drawn) | inconclusive: 20 µM [inhibitor, partial curve, poor fit] | – |
| Cc1cc(Nc2cccc(C(F)(F)F)c2)nc2ccc(NC(=O)Cc3ccc(Cl)cc3)cc12 | inconclusive: 39.8 µM [inhibitor, single point] | – |
| CS(=O)(=O)N1CCN(Cc2cc3nc(-c4cccc5[nH]ncc45)nc(N4CCOCC4)c3s2)CC1 | inconclusive: 1.22 µM [inhibitor, full curve] | – |
| COc1ccc(Cl)cc1NC(=O)CSc1nc(=O)n(Cc2ccco2)c2c1CCC2 | inconclusive: 28.2 µM [inhibitor, single point] | – |
| CC(C)NCC(O)c1ccc(O)c(O)c1 (stereo not drawn) | inactive | – |
| Cc1ccc(-n2ncc3c(Nc4ccc(Oc5ccccc5)cc4)ncnc32)c(C)c1 | inconclusive: 39.8 µM [inhibitor, single point] | – |
| C#C[C@]1(O)CC[C@H]2[C@@H]3CCc4cc(O)ccc4[C@H]3CC[C@@]21C | – | inactive: -5.91% |
| CC(C)(C)c1ccc(C(=O)NCC(c2ccco2)S(=O)(=O)c2ccc(F)cc2)cc1 (stereo not drawn) | inconclusive: 31.6 µM [inhibitor, partial curve, poor fit] | – |
| COc1cc2nc(-c3ccc(N4CCN(C)CC4)cc3)nc(NCCN3CCOCC3)c2cc1OC | inconclusive: 2.17 µM [inhibitor, full curve] | – |
| O=C(Cn1cnc(S(=O)(=O)N2CCCC2)c1)Nc1cccc(Br)c1 | inconclusive: 12.6 µM [inhibitor, partial curve, poor fit] | – |
| CC(CNC(=O)CCc1cn(Cc2ccccc2Cl)c2ccccc12)c1ccccc1 (stereo not drawn) | inconclusive: 22.4 µM [inhibitor, partial curve, poor fit] | – |
| COc1cccc(Oc2nc(C)nc3c2oc2ccccc23)c1 | inconclusive: 31.6 µM [inhibitor, partial curve, poor fit] | – |
| Cc1c(C(=O)NCc2cccc(Cl)c2)sc2nc[nH]c(=O)c12 | – | inactive: -12.4% |
| CCc1ccc(NC(=O)c2ccc(F)c(S(=O)(=O)N3CCN(c4ccc(OC)cc4)CC3)c2)cc1 | inconclusive: 1.26 µM [inhibitor, full curve, poor fit] | – |
| CCOC(=O)c1cccc(NS(=O)(=O)c2cc(-c3cnc(C4CC4)o3)ccc2C)c1 | inconclusive: 35.5 µM [inhibitor, single point] | – |
| Cc1c(C(=O)OC(C)C)sc(NC(=O)C2c3ccccc3Oc3ccccc32)c1C(=O)OC(C)C | inconclusive: 31.6 µM [inhibitor, partial curve, poor fit] | – |
| O=C(Nc1cccc(C(F)(F)F)c1)c1cc(-c2ccc3c(c2)OCCO3)on1 | inconclusive: 28.2 µM [inhibitor, partial curve, poor fit] | – |
| O=C(NCCc1ccc(F)cc1)C(=O)NCC(c1ccco1)S(=O)(=O)c1cccs1 (stereo not drawn) | inconclusive: 31.6 µM [inhibitor, single point] | – |

| SMILES | Potency | activity change, negative = inhibition |
| --- | --- | --- |
| CCc1ccccc1NC(=O)c1ccc2nc(C(C)C)oc2c1 | inconclusive: 20 µM [inhibitor, partial curve, poor fit] | – |
| CCOC(=O)c1ccc(NC(=O)c2cc3sccc3n2Cc2ccc(Cl)cc2)cc1 | inconclusive: 39.8 µM [inhibitor, single point] | – |
| COc1ccc(CCNC(=O)c2ccc(Cn3c(=O)c4ccccc4n(Cc4cccc(Cl)c4)c3=O)cc2)cc1OC | inconclusive: 25.1 µM [inhibitor, partial curve, poor fit] | – |
| CC(C)c1ccc(NS(=O)(=O)c2ccc3nc(-c4ccccc4)[nH]c3c2)cc1 | inconclusive: 22.4 µM [inhibitor, single point] | – |
| CCOc1ccc(CN2CCc3nc(Nc4ccc5c(c4)OCCO5)ncc3C2)cc1 | – | inactive: 21.6% |
| O=C(CCc1nc2cccnc2n1Cc1cccs1)Nc1cccc(C(F)(F)F)c1 | inconclusive: 20 µM [inhibitor, single point] | – |
| O=C(c1ccc(C(F)(F)F)cc1)N1CCC(c2noc(-c3ccc(S(=O)(=O)N4CCCC4)cc3)n2)CC1 | inconclusive: 5.62 µM [inhibitor, single point] | – |
| O=C(c1cccs1)N(Cc1cccnc1)c1nc2c(Cl)cccc2s1 | inconclusive: 12.6 µM [inhibitor, partial curve] | – |
| COc1ccc(-c2noc(CCC(=O)N(C)c3ccccc3C)n2)cc1 | inconclusive: 20 µM [inhibitor, single point] | – |
| O=C(Nc1ccc(-c2nc3cc(NC(=O)c4ccccc4Cl)ccc3o2)cc1)c1ccccc1Cl | inconclusive: 8.91 µM [inhibitor, partial curve] | – |
| CN(C)c1ccc(CN(CC2CCCO2)C(=O)COc2ccccc2Cl)cc1 (stereo not drawn) | inconclusive: 39.8 µM [inhibitor, single point] | – |
| N#Cc1ccc(-c2cccs2)nc1SCc1c(F)cccc1Cl | inconclusive: 15.8 µM [inhibitor, partial curve, poor fit] | – |
| CN(C)c1ccc(CNC(=O)C2CCCN(S(=O)(=O)c3ccc4c(c3)oc(=O)n4C)C2)cc1 (stereo not drawn) | – | inactive: -9.88% |
| COc1ccc(-c2ccc3c(N4CCOC[C@H]4C)nc(N4CCOC[C@H]4C)nc3n2)cc1CO | inconclusive: 0.0432 µM [inhibitor, full curve] | – |
| CC1=C(C(=O)Nc2ccc(Cl)cc2)C(c2ccccc2C)n2ncc(C(=O)Nc3ccc(C)cc3)c2N1 (stereo not drawn) | inconclusive: 25.1 µM [inhibitor, partial curve, poor fit] | – |
| COc1ccc(-n2cc(-c3ccccc3)c3c(NC4CCCCC4)ncnc32)cc1 | inconclusive: 39.8 µM [inhibitor, single point] | – |
| Cn1c(=O)n(-c2ccc(C(C)(C)C#N)cc2)c2c3cc(-c4cnc5ccccc5c4)ccc3ncc21 | inconclusive: 0.0273 µM [inhibitor, full curve] | – |
| Cc1cc(OCCOCC[N+](C)(C)Cc2ccccc2)ccc1C(C)(C)CC(C)(C)C | inconclusive: 35.5 µM [inhibitor, single point] | – |
